Over roughly 81,000 sequences, “one-hybrid fitness for binding NBS DNA” has its median near -0.1; the highest 2% begin near 0.36. The list shows a part of the results.

B1: Caulobacter ParB omega fusion; a variant is named by its letters at X, in order, B8GW30 (parent)
chain: MESVVVGEPGMSEGRRGLGRGLSALLGEVDAAPAQAPGEQLGGSREAPIEILQRNPDQPRRTFREEDLEDLSNSIREKGVLQPILVRPSPDTAGEYQIVAGERAWRAAQRAGLKTVPIMVRELDDLAVLEIGIIENVQRADLNVLEEALSYKVLMEKFERTQENIAQTIGKSXSHVANXMRLLXLPDEVQSYLVSGELTAXHARAIAAAADPVALAKQIIEGGLSVRETEALARKAPNLSAGKSKGGRPPRVKDTDTQALESDLSSVLGLDVSIDHRGSTGTLTITYATLEQLDDLCNRLTRGI

The variants in the assay derive from B1. Briefly: one-hybrid fitness for binding NBS DNA (the Noc-binding site; scaled: cognate 1, non-cognate 0); higher = stronger binding. To be noted: with NBS DNA site. A digest of the protocol: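 Bacterial one-hybrid selection in E. coli USO rpoZ- hisB- pyrF- with a HIS3 reporter carrying the site 19 bp from the promoter, screening Caulobacter ParB libraries with four specificity codons randomised (NNS). Cells grew 48 hours at 37°C on M9-minus-histidine plus 0.1 mM IPTG and 5 mM 3-AT. Plasmids before and after selection were Illumina-sequenced, three replicate libraries pooled, and variants under 10 reads dropped. Fitness is the log change in variant-to-wild-type read ratio, rescaled to cognate 1, non-cognate 0.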
For CYKM, the “one-hybrid fitness for binding NBS DNA” value is ≤ 0.2.

WFKL: the “one-hybrid fitness for binding NBS DNA” value was ≤ 0.2.

Take PEMT: the “one-hybrid fitness for binding NBS DNA” value is ≤ 0.2.

Turning to ADAA, the “one-hybrid fitness for binding NBS DNA” value is ≤ 0.2.

For the variant TSPT, the “one-hybrid fitness for binding NBS DNA” value is ≤ 0.2.

As to TSKN, the “one-hybrid fitness for binding NBS DNA” value was ≤ 0.2.

For the variant FMPT, the “one-hybrid fitness for binding NBS DNA” value was ≤ 0.2.

Consider FPDT, for which the “one-hybrid fitness for binding NBS DNA” value is ≤ 0.2.

For QTMP, the “one-hybrid fitness for binding NBS DNA” value was ≤ 0.2.

With QTDT, the “one-hybrid fitness for binding NBS DNA” value was 0.448.

On to FPRR, for which the “one-hybrid fitness for binding NBS DNA” value is ≤ 0.2.

In the case of EVTL, the “one-hybrid fitness for binding NBS DNA” value is ≤ 0.2.

ADER: the “one-hybrid fitness for binding NBS DNA” value is ≤ 0.2.

Regarding EACG, the “one-hybrid fitness for binding NBS DNA” value is ≤ 0.2.

For RLSG, the “one-hybrid fitness for binding NBS DNA” value was ≤ 0.2.

On to VYTL, for which the “one-hybrid fitness for binding NBS DNA” value is ≤ 0.2.

With GECK, the “one-hybrid fitness for binding NBS DNA” value was ≤ 0.2.

Take VGTE: the “one-hybrid fitness for binding NBS DNA” value was ≤ 0.2.

Turning to TTDD, the “one-hybrid fitness for binding NBS DNA” value is ≤ 0.2.

Regarding CRFE, the “one-hybrid fitness for binding NBS DNA” value is ≤ 0.2.

Consider QRLT, for which the “one-hybrid fitness for binding NBS DNA” value was 0.731.

With MRHL, the “one-hybrid fitness for binding NBS DNA” value was ≤ 0.2.

As to KMCF, the “one-hybrid fitness for binding NBS DNA” value was ≤ 0.2.

Consider WPLR, for which the “one-hybrid fitness for binding NBS DNA” value was ≤ 0.2.

For the variant STFL, the “one-hybrid fitness for binding NBS DNA” value was ≤ 0.2.

On to PVDS, for which the “one-hybrid fitness for binding NBS DNA” value is ≤ 0.2.

For GAYC, the “one-hybrid fitness for binding NBS DNA” value is ≤ 0.2.

Take QNSW: the “one-hybrid fitness for binding NBS DNA” value is ≤ 0.2.

For the variant HNMG, the “one-hybrid fitness for binding NBS DNA” value turned out to be 0.257.

WSTV: the “one-hybrid fitness for binding NBS DNA” value is ≤ 0.2.

For HYHG, the “one-hybrid fitness for binding NBS DNA” value was ≤ 0.2.

TLSQ: the “one-hybrid fitness for binding NBS DNA” value is ≤ 0.2.

Take QAAR: the “one-hybrid fitness for binding NBS DNA” value was 0.511.

Turning to RKWL, the “one-hybrid fitness for binding NBS DNA” value was ≤ 0.2.

On to MFAA, for which the “one-hybrid fitness for binding NBS DNA” value was ≤ 0.2.

Consider LDRS, for which the “one-hybrid fitness for binding NBS DNA” value was ≤ 0.2.

For QAAG, the “one-hybrid fitness for binding NBS DNA” value was ≤ 0.2.

As to VPNT, the “one-hybrid fitness for binding NBS DNA” value is ≤ 0.2.

For the variant HWQR, the “one-hybrid fitness for binding NBS DNA” value is ≤ 0.2.

With FQRR, the “one-hybrid fitness for binding NBS DNA” value was ≤ 0.2.

As to RPMP, the “one-hybrid fitness for binding NBS DNA” value was ≤ 0.2.

As for QTHT, the “one-hybrid fitness for binding NBS DNA” value turned out to be 0.648.

Consider FSCR, for which the “one-hybrid fitness for binding NBS DNA” value is ≤ 0.2.

For IEPS, the “one-hybrid fitness for binding NBS DNA” value is ≤ 0.2.

With RCPK, the “one-hybrid fitness for binding NBS DNA” value was ≤ 0.2.

Consider SHGR, for which the “one-hybrid fitness for binding NBS DNA” value is ≤ 0.2.

Regarding MTSV, the “one-hybrid fitness for binding NBS DNA” value is ≤ 0.2.

For ASRF, the “one-hybrid fitness for binding NBS DNA” value was ≤ 0.2.

On to AQSL, for which the “one-hybrid fitness for binding NBS DNA” value is ≤ 0.2.

As to LMEM, the “one-hybrid fitness for binding NBS DNA” value is ≤ 0.2.

Turning to QSHT, the “one-hybrid fitness for binding NBS DNA” value came out at 0.429.

With QCDE, the “one-hybrid fitness for binding NBS DNA” value was ≤ 0.2.

On to APSF, for which the “one-hybrid fitness for binding NBS DNA” value was ≤ 0.2.

Consider TDYF, for which the “one-hybrid fitness for binding NBS DNA” value is ≤ 0.2.

On to QKTA, for which the “one-hybrid fitness for binding NBS DNA” value came out at 0.295.

In the case of PDSA, the “one-hybrid fitness for binding NBS DNA” value is ≤ 0.2.

For CCSL, the “one-hybrid fitness for binding NBS DNA” value was ≤ 0.2.

Turning to YKHR, the “one-hybrid fitness for binding NBS DNA” value was ≤ 0.2.

Regarding PQQC, the “one-hybrid fitness for binding NBS DNA” value was ≤ 0.2.

As to QTHS, the “one-hybrid fitness for binding NBS DNA” value is 0.585.

With LPSM, the “one-hybrid fitness for binding NBS DNA” value was ≤ 0.2.

Turning to PGDC, the “one-hybrid fitness for binding NBS DNA” value is ≤ 0.2.

MRGR: the “one-hybrid fitness for binding NBS DNA” value was ≤ 0.2.

For MDDM, the “one-hybrid fitness for binding NBS DNA” value was ≤ 0.2.

As to QMNA, the “one-hybrid fitness for binding NBS DNA” value was 0.276.

On to NQAS, for which the “one-hybrid fitness for binding NBS DNA” value was ≤ 0.2.

DTSV: the “one-hybrid fitness for binding NBS DNA” value was ≤ 0.2.

For TFAY, the “one-hybrid fitness for binding NBS DNA” value was ≤ 0.2.

As to PYME, the “one-hybrid fitness for binding NBS DNA” value was ≤ 0.2.

For NYGC, the “one-hybrid fitness for binding NBS DNA” value was ≤ 0.2.

Take TVSK: the “one-hybrid fitness for binding NBS DNA” value was ≤ 0.2.

For the variant GEDG, the “one-hybrid fitness for binding NBS DNA” value was ≤ 0.2.

With WRAW, the “one-hybrid fitness for binding NBS DNA” value is ≤ 0.2.

As to TPPC, the “one-hybrid fitness for binding NBS DNA” value is ≤ 0.2.

On to PCQW, for which the “one-hybrid fitness for binding NBS DNA” value is ≤ 0.2.

As to MNWI, the “one-hybrid fitness for binding NBS DNA” value is ≤ 0.2.

As for LVRC, the “one-hybrid fitness for binding NBS DNA” value was ≤ 0.2.

With AMYV, the “one-hybrid fitness for binding NBS DNA” value is ≤ 0.2.

Take FKHG: the “one-hybrid fitness for binding NBS DNA” value is ≤ 0.2.

For MDCV, the “one-hybrid fitness for binding NBS DNA” value was ≤ 0.2.

Take KCSG: the “one-hybrid fitness for binding NBS DNA” value was ≤ 0.2.

Regarding LTVT, the “one-hybrid fitness for binding NBS DNA” value was ≤ 0.2.

In the case of LDNT, the “one-hybrid fitness for binding NBS DNA” value is ≤ 0.2.

Regarding YLRT, the “one-hybrid fitness for binding NBS DNA” value is ≤ 0.2.

In the case of HRGT, the “one-hybrid fitness for binding NBS DNA” value is ≤ 0.2.

Regarding NMKV, the “one-hybrid fitness for binding NBS DNA” value is ≤ 0.2.

With QTFG, the “one-hybrid fitness for binding NBS DNA” value was ≤ 0.2.

Regarding AIPM, the “one-hybrid fitness for binding NBS DNA” value is ≤ 0.2.

Regarding VPHM, the “one-hybrid fitness for binding NBS DNA” value was ≤ 0.2.

On to NYWL, for which the “one-hybrid fitness for binding NBS DNA” value was ≤ 0.2.

Consider NWLR, for which the “one-hybrid fitness for binding NBS DNA” value was ≤ 0.2.

Take CNGN: the “one-hybrid fitness for binding NBS DNA” value was ≤ 0.2.

Take YTHC: the “one-hybrid fitness for binding NBS DNA” value was ≤ 0.2.

In the case of MKPT, the “one-hybrid fitness for binding NBS DNA” value is ≤ 0.2.

As for MDMS, the “one-hybrid fitness for binding NBS DNA” value is ≤ 0.2.

With ELHC, the “one-hybrid fitness for binding NBS DNA” value is ≤ 0.2.

Turning to KYNS, the “one-hybrid fitness for binding NBS DNA” value is ≤ 0.2.

For the variant AEVV, the “one-hybrid fitness for binding NBS DNA” value is ≤ 0.2.

QAYP: the “one-hybrid fitness for binding NBS DNA” value is ≤ 0.2.

In the case of SNTL, the “one-hybrid fitness for binding NBS DNA” value was ≤ 0.2.

For QHLA, the “one-hybrid fitness for binding NBS DNA” value is ≤ 0.2.

Consider HPWG, for which the “one-hybrid fitness for binding NBS DNA” value is ≤ 0.2.

Turning to SNSG, the “one-hybrid fitness for binding NBS DNA” value is ≤ 0.2.

In the case of QYIY, the “one-hybrid fitness for binding NBS DNA” value is ≤ 0.2.

For VIIE, the “one-hybrid fitness for binding NBS DNA” value is ≤ 0.2.

In the case of TDQS, the “one-hybrid fitness for binding NBS DNA” value is ≤ 0.2.

As to GAEY, the “one-hybrid fitness for binding NBS DNA” value was ≤ 0.2.

On to RING, for which the “one-hybrid fitness for binding NBS DNA” value is ≤ 0.2.

In the case of VIII, the “one-hybrid fitness for binding NBS DNA” value is ≤ 0.2.

With VHKS, the “one-hybrid fitness for binding NBS DNA” value was ≤ 0.2.

On to FRFT, for which the “one-hybrid fitness for binding NBS DNA” value was ≤ 0.2.

As for RYLE, the “one-hybrid fitness for binding NBS DNA” value is ≤ 0.2.

In the case of IAED, the “one-hybrid fitness for binding NBS DNA” value is ≤ 0.2.

In the case of FSTY, the “one-hybrid fitness for binding NBS DNA” value is ≤ 0.2.

Take NMIS: the “one-hybrid fitness for binding NBS DNA” value is ≤ 0.2.

Consider FLTF, for which the “one-hybrid fitness for binding NBS DNA” value was ≤ 0.2.

With ADRL, the “one-hybrid fitness for binding NBS DNA” value is ≤ 0.2.

Regarding PVVC, the “one-hybrid fitness for binding NBS DNA” value was ≤ 0.2.

As to CSHG, the “one-hybrid fitness for binding NBS DNA” value is ≤ 0.2.

PDFY: the “one-hybrid fitness for binding NBS DNA” value is ≤ 0.2.

For the variant GVNQ, the “one-hybrid fitness for binding NBS DNA” value was ≤ 0.2.

For the variant ARLG, the “one-hybrid fitness for binding NBS DNA” value is ≤ 0.2.

As for RFTI, the “one-hybrid fitness for binding NBS DNA” value is ≤ 0.2.

KVHE: the “one-hybrid fitness for binding NBS DNA” value is ≤ 0.2.

With ESET, the “one-hybrid fitness for binding NBS DNA” value was ≤ 0.2.

For the variant GIEK, the “one-hybrid fitness for binding NBS DNA” value was ≤ 0.2.

On to CVLD, for which the “one-hybrid fitness for binding NBS DNA” value was ≤ 0.2.

As to KTRF, the “one-hybrid fitness for binding NBS DNA” value is ≤ 0.2.

As for HRES, the “one-hybrid fitness for binding NBS DNA” value was ≤ 0.2.

Consider VNQG, for which the “one-hybrid fitness for binding NBS DNA” value was ≤ 0.2.

Take AMHG: the “one-hybrid fitness for binding NBS DNA” value was ≤ 0.2.

AVMS: the “one-hybrid fitness for binding NBS DNA” value is ≤ 0.2.

With MFVR, the “one-hybrid fitness for binding NBS DNA” value is ≤ 0.2.

For the variant PKDM, the “one-hybrid fitness for binding NBS DNA” value was ≤ 0.2.

For VYST, the “one-hybrid fitness for binding NBS DNA” value is ≤ 0.2.

CLKC: the “one-hybrid fitness for binding NBS DNA” value was ≤ 0.2.

As for ANPQ, the “one-hybrid fitness for binding NBS DNA” value is ≤ 0.2.

On to PTWT, for which the “one-hybrid fitness for binding NBS DNA” value is ≤ 0.2.

On to TVTA, for which the “one-hybrid fitness for binding NBS DNA” value turned out to be 0.309.

As for RWEI, the “one-hybrid fitness for binding NBS DNA” value is ≤ 0.2.

SRPQ: the “one-hybrid fitness for binding NBS DNA” value was ≤ 0.2.

Turning to NLEI, the “one-hybrid fitness for binding NBS DNA” value was ≤ 0.2.

For the variant MQLT, the “one-hybrid fitness for binding NBS DNA” value is ≤ 0.2.

For SVPV, the “one-hybrid fitness for binding NBS DNA” value was ≤ 0.2.

As for NFPD, the “one-hybrid fitness for binding NBS DNA” value was ≤ 0.2.

Take SDLC: the “one-hybrid fitness for binding NBS DNA” value was ≤ 0.2.

EGAR: the “one-hybrid fitness for binding NBS DNA” value was ≤ 0.2.

AYYW: the “one-hybrid fitness for binding NBS DNA” value was ≤ 0.2.

Take HIIG: the “one-hybrid fitness for binding NBS DNA” value was ≤ 0.2.

In the case of PREY, the “one-hybrid fitness for binding NBS DNA” value is ≤ 0.2.

MPKS: the “one-hybrid fitness for binding NBS DNA” value was ≤ 0.2.

As for RHMH, the “one-hybrid fitness for binding NBS DNA” value was ≤ 0.2.

Consider TALC, for which the “one-hybrid fitness for binding NBS DNA” value is ≤ 0.2.

Source of the values: a collection of fitness landscapes (doi:10.1016/j.celrep.2020.107928).
